Here are results for 28 compounds from the antibiotic and cytotoxicity screens of Wong et al. (2023).

One assay relates to HSkMC. The assay can be described thus: cytotoxicity call (relative viability < 0.9). The note with it: 10 µM.
A further assay deals with HepG2. The assay can be described thus: cytotoxicity call (relative viability < 0.9). Particulars: 10 µM.
The test system of a further assay is S. aureus RN4220. Description: growth inhibition call (relative growth <= 0.2). Particulars: 50 µM.

Molecules are shown by their SMILES. The list shows a part of the results.

Take `C[C@H](CO)N1C[C@H](C)[C@@H](CN(C)C(=O)NC2CCCCC2)Oc2ccc(NC(=O)Nc3cccc4ccccc34)cc2C1=O`: the cytotoxicity call in the assay with HSkMC and with HepG2 was “inactive” throughout. In addition, the growth inhibition call in the assay with S. aureus RN4220 is “inactive”.
For `C[C@@H]1CN([C@@H](C)CO)C(=O)CCCn2nncc2CO[C@@H]1CN(C)S(=O)(=O)c1ccc(C#N)cc1`, the cytotoxicity call with HSkMC and in the assay with HepG2 was “inactive” each time. Also, the growth inhibition call with S. aureus RN4220 was “inactive”.
As for `CN(C)C(=O)C1CCNCC1`, the cytotoxicity call in the assay on HSkMC and with HepG2 was “inactive” each time. Moreover, the growth inhibition call in the assay on S. aureus RN4220 is “inactive”.
Consider `COc1ccc(NC(=O)N(C)C[C@@H]2Oc3ccc(NS(=O)(=O)c4c(C)noc4C)cc3CC(=O)N([C@H](C)CO)C[C@@H]2C)cc1`, for which the cytotoxicity call in the assay with HSkMC and in the assay on HepG2 was “inactive” in each case. For the same compound, the growth inhibition call in the assay with S. aureus RN4220 is “inactive”.
In the case of `O=C(O)CCC(=O)Nc1ccc(S(=O)(=O)Nc2nccs2)cc1`, the cytotoxicity call in the assay with HSkMC and in the assay on HepG2 was “inactive” each time. Besides, the growth inhibition call in the assay with S. aureus RN4220 was “inactive”.
In the case of `O=C1c2ccccc2C(=O)c2c(NCCNCCO)ccc(NCCNCCO)c21`, the cytotoxicity call in the assay with HSkMC and in the assay with HepG2 was “active” in each case. The growth inhibition call in the assay on S. aureus RN4220 is “inactive”.
Regarding `Cc1ccccc1S(=O)(=O)N1C[C@H](O)COC[C@H]2O[C@H](CC(=O)N3CCOCC3)CC[C@@H]21`, the cytotoxicity call in the assay with HSkMC and in the assay with HepG2 was “inactive” in each case. Moreover, in the assay on S. aureus RN4220, the growth inhibition call was “inactive”.
As for `O=C(C[C@H]1C[C@@H]2c3cc(NS(=O)(=O)c4ccc(F)cc4)ccc3O[C@@H]2[C@@H](CO)O1)NCc1ccccc1`, the cytotoxicity call with HSkMC and with HepG2 was “inactive” each time. Further, in the assay with S. aureus RN4220, the growth inhibition call is “inactive”.
Take `Cc1ccc(S(=O)(=O)N2C[C@@H](O)COC[C@H]3O[C@H](CC(=O)NCc4ccc5c(c4)OCO5)CC[C@@H]32)cc1`: the cytotoxicity call in the assay on HSkMC and with HepG2 was “inactive” throughout. Also, the growth inhibition call in the assay on S. aureus RN4220 was “inactive”.
For the compound `C[C@@H]1CN([C@@H](C)CO)C(=O)c2cc(NS(=O)(=O)c3ccc(F)cc3)ccc2O[C@@H](C)CCCCO[C@@H]1CN(C)C(=O)Nc1cccc2ccccc12`, the cytotoxicity call in the assay on HSkMC and with HepG2 was “inactive” in each case. In the assay with S. aureus RN4220, the growth inhibition call is “inactive”.
In the case of `C[C@H](CO)N1C[C@H](C)[C@H](CN(C)S(=O)(=O)c2ccccc2)Oc2ncc(-c3ccncc3)cc2C1=O`, the cytotoxicity call in the assay with HSkMC and in the assay with HepG2 was “inactive” throughout. Besides, the growth inhibition call with S. aureus RN4220 was “inactive”.
For `Cn1cnc(CCNC(=O)C[C@H]2CC[C@H]3[C@@H](COC[C@H](O)CN3C(=O)Nc3ccc(C(F)(F)F)cc3)O2)c1`, the cytotoxicity call with HSkMC and with HepG2 was “inactive” in each case. The growth inhibition call in the assay on S. aureus RN4220 was “inactive”.
With `CO[C@@H]1CN(C)C(=O)c2ccc(NC(=O)Nc3ccc4c(c3)OCO4)cc2OC[C@@H](C)N(C(C)=O)C[C@H]1C`, the cytotoxicity call in the assay with HSkMC and with HepG2 was “inactive” in each case. The growth inhibition call with S. aureus RN4220 is “inactive”.
For the compound `O=C1CCOC1`, the cytotoxicity call in the assay with HSkMC and in the assay with HepG2 was “inactive” throughout. Also, the growth inhibition call in the assay on S. aureus RN4220 is “inactive”.
For `CC(C)NC(=O)Nc1cccc2c1O[C@H](CN(C)S(=O)(=O)c1cn(C)cn1)[C@H](C)CN([C@@H](C)CO)C2=O`, the cytotoxicity call with HSkMC and in the assay on HepG2 was “inactive” in each case. Also, the growth inhibition call in the assay with S. aureus RN4220 is “inactive”.
For `CO[C@H]1CN(C)C(=O)c2ccc(NS(=O)(=O)CC(F)(F)F)cc2OC[C@@H](C)N(Cc2nccs2)C[C@H]1C`, the cytotoxicity call in the assay with HSkMC and in the assay on HepG2 was “inactive” each time. The growth inhibition call with S. aureus RN4220 is “inactive”.
Regarding `COCC#Cc1cnc2c(c1)C(=O)N([C@@H](C)CO)C[C@H](C)[C@@H](CN(C)S(=O)(=O)c1cccc(OC)c1)O2`, the cytotoxicity call in the assay with HSkMC and with HepG2 was “inactive” in each case. Moreover, the growth inhibition call in the assay with S. aureus RN4220 was “inactive”.
Take `C[C@@H]1CN([C@@H](C)CO)C(=O)c2cccc(NC(=O)Nc3cccc4ccccc34)c2O[C@H]1CN(C)S(=O)(=O)c1ccc(OC(F)(F)F)cc1`: in the assay on HSkMC, the cytotoxicity call is “inactive”. Besides, in the assay on HepG2, the cytotoxicity call is “active”. The growth inhibition call with S. aureus RN4220 was “inactive”.
Take `COc1ccc(NC(=O)N(C)C[C@H]2OCCCC[C@H](C)Oc3ccc(NS(=O)(=O)c4c(C)noc4C)cc3C(=O)N([C@H](C)CO)C[C@@H]2C)cc1`: the cytotoxicity call in the assay with HSkMC and with HepG2 was “inactive” in each case. The growth inhibition call in the assay on S. aureus RN4220 is “inactive”.
With `CN1CCN(C(=O)C[C@@H]2CC[C@H]3[C@@H](COc4ccc(NC(=O)c5cscn5)cc4C(=O)N3C)O2)CC1`, the cytotoxicity call with HSkMC and in the assay with HepG2 was “inactive” throughout. Moreover, in the assay with S. aureus RN4220, the growth inhibition call was “inactive”.
On to `NCc1c(Cl)cccc1Cl`, for which the cytotoxicity call with HSkMC and with HepG2 was “inactive” throughout. In the assay with S. aureus RN4220, the growth inhibition call is “inactive”.
Take `C[C@H]1CN([C@@H](C)CO)C(=O)c2cc(NS(=O)(=O)c3ccc(Cl)cc3)ccc2O[C@@H]1CN(C)Cc1ccc(Cl)c(Cl)c1`: the cytotoxicity call in the assay with HSkMC and with HepG2 was “active” throughout. Besides, the growth inhibition call in the assay with S. aureus RN4220 is “inactive”.
With `COc1ccc(S(=O)(=O)Nc2ccc3c(c2)CC(=O)N([C@@H](C)CO)C[C@@H](C)[C@@H](CN(C)CC2CC2)O3)cc1`, the cytotoxicity call in the assay on HSkMC and with HepG2 was “inactive” throughout. Besides, the growth inhibition call in the assay with S. aureus RN4220 was “inactive”.
As to `COC[C@H]1CN(C(=O)C2CC2)Cc2cnn(C)c21`, the cytotoxicity call in the assay with HSkMC and with HepG2 was “inactive” each time. Moreover, in the assay on S. aureus RN4220, the growth inhibition call was “inactive”.
In the case of `CCC[C@@H]1C[C@@H](C(=O)N[C@H]([C@H]2O[C@H](SC)[C@H](O)[C@@H](O)[C@H]2O)[C@H](C)O)N(C)C1`, the cytotoxicity call in the assay on HSkMC (human skeletal muscle cells) and in the assay on HepG2 was “inactive” in each case. The growth inhibition call in the assay with S. aureus RN4220 is “active”.
As to `C[C@H](CO)N1C[C@H](C)[C@@H](CN(C)C(=O)Nc2ccc3c(c2)OCO3)Oc2c(NS(C)(=O)=O)cccc2C1=O`, the cytotoxicity call with HSkMC and with HepG2 was “inactive” throughout. Further, the growth inhibition call in the assay with S. aureus RN4220 is “inactive”.
As to `C[C@@H]1CN([C@@H](C)CO)C(=O)c2cccc(NC(=O)c3ccc(-c4nccs4)cc3)c2O[C@H]1CN(C)S(C)(=O)=O`, the cytotoxicity call with HSkMC and in the assay on HepG2 was “inactive” throughout. Also, the growth inhibition call with S. aureus RN4220 was “inactive”.
As for `Cc1noc(C)c1S(=O)(=O)Nc1ccc2c(c1)C(=O)N([C@@H](C)CO)C[C@@H](C)[C@H](CN(C)S(=O)(=O)c1cn(C)cn1)OCCCC[C@H](C)O2`, the cytotoxicity call in the assay with HSkMC and in the assay on HepG2 was “inactive” throughout. Further, the growth inhibition call in the assay with S. aureus RN4220 was “inactive”.
